Results on 153 variants are retold here after a collection of fitness landscapes (doi:10.1126/science.1257360).

This is one part of the list. Where only a bound is given, the exact number is not on record here.

B1: PhoQ; a variant is named by its letters at X, in order, P23837 (parent)
chain: MKKLLRLFFPLSLRVRFLLATAAVVLVLSLAYGMVALIGYSVSFDKTTFRLLRGESNLFYTLAKWENNKLHVELPENIDKQSPTMTLIYDENGQLLWAQRDVPWLMKMIQPDWLKSNGFHEIEADVNDTSLLLSGDHSIQQQLQEVREDDDDAEMTHSVAVNVYPATSRMPKLTIVVVDTIPVELKSSYMVWSWFIYVLSANLLLVIPLLWVAAWWSLRPIEALAKEVRELEEHNRELLNPATTRELTSLVRNLNRLLKSERERYDKYRTTLTDLTHSLKTPLXXLQXXLRSLRSEKMSVSDAEPVMLEQISRISQQIGYYLHRASMRGGTLLSRELHPVAPLLDNLTSALNKVYQRKGVNISLDISPEISFVGEQNDFVEVMGNVLDNACKYCLEFVEISARQTDEHLYIVVEDDGPGIPLSKREVIFDRGQRVDTLRPGQGVGLAVAREITEQYEGKIVAGESMLGGARMEVIFGRQHSAPKDE

Variants of B1 are the subject of this assay. Put plainly: enrichment ratio after two sorts for PhoP signalling (ratio (wild type AVST 3.29)); higher = more functional. As to conditions: with PhoP (E. coli).
For the variant WFFQ, the enrichment ratio is not above 0.25.
For HMLE, the enrichment ratio was not above 0.25.
As to DYTH, the enrichment ratio was not above 0.25.
For NHQD, the enrichment ratio was not above 0.25.
THNH: the enrichment ratio is 16.2.
For the variant YWAL, the enrichment ratio is not above 0.25.
As for MFWC, the enrichment ratio was not above 0.25.
As to LVLT, the enrichment ratio is not above 0.25.
Take KYSE: the enrichment ratio was not above 0.25.
Then TTRT, with not above 0.25.
Then AHTW, with not above 0.25; and ITQT, with not above 0.25; and MSHK, with not above 0.25.
With HHWV, the enrichment ratio was not above 0.25.
HDRM: the enrichment ratio is not above 0.25.
As to HSHG, the enrichment ratio is 0.457.
In the case of MKVW, the enrichment ratio is not above 0.25.
DMHE: the enrichment ratio is not above 0.25.
Regarding WIKF, the enrichment ratio is not above 0.25.
For the variant MKYS, the enrichment ratio is not above 0.25.
For PFDI, the enrichment ratio was not above 0.25.
Turning to AGSE, the enrichment ratio is 9.87.
NEQF: the enrichment ratio is not above 0.25.
With TKRM, the enrichment ratio was not above 0.25.
Regarding NWPK, the enrichment ratio was not above 0.25.
On to GCCC, for which the enrichment ratio is 0.317.
In the case of HGSD, the enrichment ratio was not above 0.25.
Turning to NGLW, the enrichment ratio was not above 0.25.
Consider MKPG, for which the enrichment ratio is not above 0.25.
For SWSP, the enrichment ratio was not above 0.25.
In the case of SSMN, the enrichment ratio is 8.17.
For the variant MAFQ, the enrichment ratio worked out at 24.4.
In the case of LSEV it was not above 0.25.
In the case of SESF it was 8.74.
Turning to MYMK, the enrichment ratio is not above 0.25.
Then ATIG, with 4.76; and LWLM, with not above 0.25.
On to IKND, for which the enrichment ratio was not above 0.25.
Then SHRH, with not above 0.25.
For TSWA, the enrichment ratio turned out to be 15.4.
Take PGMV: the enrichment ratio was not above 0.25.
As for TEVE, the enrichment ratio turned out to be 11.6.
For the variant DPPG, the enrichment ratio was not above 0.25.
FHCI: the enrichment ratio was not above 0.25.
In the case of RDLT it was not above 0.25; in that of SGYP, not above 0.25.
With YNCN, the enrichment ratio is not above 0.25.
In the case of SMPW, the enrichment ratio is not above 0.25.
Then TTVD, with not above 0.25; and ITIL, with not above 0.25; and ADGS, with not above 0.25.
TFGP: the enrichment ratio is not above 0.25.
For the variant GEPM, the enrichment ratio is not above 0.25.
Consider SMTT, for which the enrichment ratio is 3.61.
Turning to PFTK, the enrichment ratio is not above 0.25.
For QNWG, the enrichment ratio is not above 0.25.
Regarding QTPQ, the enrichment ratio was not above 0.25.
Turning to YCAF, the enrichment ratio was not above 0.25.
Take AMPP: the enrichment ratio is not above 0.25.
Consider KHQG, for which the enrichment ratio was not above 0.25.
Then SCGN, with 7.28; and KDSE, with not above 0.25; and ELYF, with not above 0.25.
Regarding QYHR, the enrichment ratio is not above 0.25.
Consider RWWS, for which the enrichment ratio is not above 0.25.
As for WHMH, the enrichment ratio was not above 0.25.
On to LGRT, for which the enrichment ratio is not above 0.25.
On to MQKD, for which the enrichment ratio is not above 0.25.
In the case of NAKV it was not above 0.25; in that of LSKC, not above 0.25.
With SYFG, the enrichment ratio is not above 0.25.
For EPFP, the enrichment ratio is not above 0.25.
For the variant RKML, the enrichment ratio is not above 0.25.
In the case of LDKK it was not above 0.25; in that of WSGM, not above 0.25.
Then LMRY, with not above 0.25; and RLSC, with not above 0.25; and RCYW, with not above 0.25.
Turning to MTGF, the enrichment ratio came out at 2.95.
As for KATL, the enrichment ratio is not above 0.25.
Then TYYV, with not above 0.25; and YMAC, with not above 0.25.
In the case of YWNE it was not above 0.25; in that of MRVQ, not above 0.25; in that of ACHW, not above 0.25.
Then DQIP, with not above 0.25.
Turning to FGCK, the enrichment ratio is not above 0.25.
Turning to LAEE, the enrichment ratio was not above 0.25.
SWWN: the enrichment ratio was not above 0.25.
In the case of LRFQ, the enrichment ratio was not above 0.25.
For IQWA, the enrichment ratio was not above 0.25.
With PRGE, the enrichment ratio was not above 0.25.
As for THVT, the enrichment ratio was not above 0.25.
GFLR: the enrichment ratio was not above 0.25.
Take YPKM: the enrichment ratio is not above 0.25.
For APTY, the enrichment ratio is not above 0.25.
PCPV: the enrichment ratio is not above 0.25.
As for EIHF, the enrichment ratio is not above 0.25.
In the case of DLKI it was not above 0.25.
With AVNG, the enrichment ratio was not above 0.25.
Take VMFK: the enrichment ratio is not above 0.25.
Regarding IAAI, the enrichment ratio is not above 0.25.
On to WFSS, for which the enrichment ratio was not above 0.25.
In the case of WMGH it was not above 0.25.
As to SKSD, the enrichment ratio was not above 0.25.
As for HVFG, the enrichment ratio was not above 0.25.
FPWT: the enrichment ratio is not above 0.25.
In the case of ANMQ, the enrichment ratio came out at 7.41.
In the case of FCDH, the enrichment ratio is not above 0.25.
With MYHN, the enrichment ratio is not above 0.25.
TNRQ: the enrichment ratio is not above 0.25.
As for GNLD, the enrichment ratio was not above 0.25.
Take MDEK: the enrichment ratio is not above 0.25.
Then IIMI, with not above 0.25; and PLSA, with not above 0.25; and IPNQ, with not above 0.25.
As for DPCH, the enrichment ratio was not above 0.25.
On to GPVR, for which the enrichment ratio is not above 0.25.
For the variant LFKA, the enrichment ratio was not above 0.25.
As to KYKS, the enrichment ratio is not above 0.25.
Consider DGRS, for which the enrichment ratio was not above 0.25.
In the case of TMEE, the enrichment ratio was not above 0.25.
For KEGM, the enrichment ratio was not above 0.25.
In the case of FGCT it was not above 0.25; in that of FVMR, not above 0.25; in that of IDAL, not above 0.25.
Consider HMME, for which the enrichment ratio is not above 0.25.
Turning to AMQP, the enrichment ratio was not above 0.25.
On to LIDE, for which the enrichment ratio is not above 0.25.
For GSSC, the enrichment ratio was 3.86.
Then VENI, with not above 0.25; and SCPF, with not above 0.25.
FTYK: the enrichment ratio was not above 0.25.
As for SVLD, the enrichment ratio is not above 0.25.
KYLV: the enrichment ratio was not above 0.25.
Regarding VIIL, the enrichment ratio was not above 0.25.
Then TQQL, with 11.6.
As for NPLL, the enrichment ratio is not above 0.25.
Regarding AEYP, the enrichment ratio was not above 0.25.
PVML: the enrichment ratio is not above 0.25.
With STMR, the enrichment ratio was 0.517.
On to EKPS, for which the enrichment ratio was not above 0.25.
Turning to LCRV, the enrichment ratio is not above 0.25.
Then LEGT, with not above 0.25; and FSQP, with not above 0.25.
PWVC: the enrichment ratio is not above 0.25.
As for KHVG, the enrichment ratio was not above 0.25.
Take PNKC: the enrichment ratio was not above 0.25.
For VCWW, the enrichment ratio was not above 0.25.
Turning to SPMY, the enrichment ratio was not above 0.25.
With QCWG, the enrichment ratio worked out at 1.24.
As to ELDP, the enrichment ratio is not above 0.25.
Turning to KCRF, the enrichment ratio was not above 0.25.
